Paper PMC4336329 (PLoS ONE, 2015)
In all, about 310,000 compounds went through this assay and about 14,000 (4.5%) showed an effect of 50% or more. Effects have a minus sign here. The list shows a part of the results.

The molecules below were run against human ether-à-go-go-related gene (hERG) potassium channel (human, UniProt Q12809) (assay: primary screen, population patch clamp on CHO cells stably expressing hERG).
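Further: peak tail current of the secondary pulse compared with the same well before compound.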

Sequence of human ether-à-go-go-related gene (hERG) potassium channel (Q12809 whole entry, looked up): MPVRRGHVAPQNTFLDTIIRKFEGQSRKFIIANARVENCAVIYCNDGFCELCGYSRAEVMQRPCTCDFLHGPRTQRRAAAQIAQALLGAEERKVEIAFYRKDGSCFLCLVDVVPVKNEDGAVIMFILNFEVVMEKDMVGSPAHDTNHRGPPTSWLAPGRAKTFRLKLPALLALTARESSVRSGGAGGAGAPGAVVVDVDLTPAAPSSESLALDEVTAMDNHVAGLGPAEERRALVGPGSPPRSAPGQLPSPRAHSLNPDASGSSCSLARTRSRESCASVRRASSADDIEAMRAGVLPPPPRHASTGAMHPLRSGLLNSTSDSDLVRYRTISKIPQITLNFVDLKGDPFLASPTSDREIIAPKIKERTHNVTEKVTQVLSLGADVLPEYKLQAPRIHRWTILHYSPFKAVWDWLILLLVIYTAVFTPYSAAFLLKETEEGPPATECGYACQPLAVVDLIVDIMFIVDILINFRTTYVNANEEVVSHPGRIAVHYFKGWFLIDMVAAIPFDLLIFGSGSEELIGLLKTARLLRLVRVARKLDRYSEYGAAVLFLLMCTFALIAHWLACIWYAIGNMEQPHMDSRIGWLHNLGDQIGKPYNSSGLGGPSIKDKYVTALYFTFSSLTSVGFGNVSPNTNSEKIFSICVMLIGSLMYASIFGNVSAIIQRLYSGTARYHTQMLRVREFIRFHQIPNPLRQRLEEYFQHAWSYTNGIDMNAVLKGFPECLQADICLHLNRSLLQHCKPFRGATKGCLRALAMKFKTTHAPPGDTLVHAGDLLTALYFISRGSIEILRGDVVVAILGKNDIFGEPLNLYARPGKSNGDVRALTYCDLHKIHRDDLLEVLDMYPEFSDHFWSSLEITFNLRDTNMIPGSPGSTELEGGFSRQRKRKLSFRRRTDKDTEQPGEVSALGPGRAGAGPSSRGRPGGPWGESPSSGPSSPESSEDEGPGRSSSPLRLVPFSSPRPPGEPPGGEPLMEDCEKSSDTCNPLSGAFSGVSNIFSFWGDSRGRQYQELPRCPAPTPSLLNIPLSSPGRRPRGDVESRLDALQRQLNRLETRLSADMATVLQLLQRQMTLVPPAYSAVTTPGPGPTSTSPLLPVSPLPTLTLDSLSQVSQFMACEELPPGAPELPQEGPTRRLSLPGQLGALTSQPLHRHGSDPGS

SMILES	hERG current change (%, negative = inhibition) at 10uM
Cc1c(Cl)cccc1NC(=S)NCCC(C)C	7.57%
COc1ccc(/C=C\C(=O)NCc2ccc3[nH]c(C)cc3c2)cc1OC	-12%
COc1cccc(CNCCc2ccc3c(c2)OCO3)c1OC.O=C(O)C(=O)O	-15.5%
CC[C@H]1CN(C)CCc2c([nH]c3ccccc23)C(=O)C[C@@H]1/C(=C\OC)C(=O)OC	-69.5%
COc1ccc(OC)c(-n2cc3c(=O)n(C)c(=O)n(C)c3c2)c1	-8.58%
OCC[C@@H]1C[C@H](O)[C@@H](O)[C@]2(Cc3ccccc3O2)O1	4.37%
O=[N+]([O-])c1cc(/C=N\Nc2ccccn2)ccc1Cl	18.4%
Cc1ccc(/C=C/C(=O)NCc2ccncc2)cc1	3.28%
CCOc1ncccc1C(=O)NCc1ccc(OC)cc1	5.84%
CC(C)Cc1nnc(NC(=O)CCC(=O)N2CCN(Cc3ccc(Cl)cc3)CC2)s1	-0.936%
COc1ccc(-n2c(SC)nnc2-c2c[nH]c3ccccc23)cc1	-0.743%
COc1ccc(N/C=C(\C#N)c2nc3ccccc3n2C)c(OC)c1	3.33%
Cc1ccc(C(=O)OCCn2cc(C#N)c(=O)[nH]c2=O)cc1	6.61%
CSc1nccc(Oc2cncc(Cl)c2)n1	8.61%
CCC(C)(C)NC(=O)CN(C(=O)CCC(=O)Nc1nccs1)c1ccc2c(c1)OCO2	-19%
COc1ccc(-n2c(CN3CCN(c4ccc(F)cc4)CC3)nc3ccc([N+](=O)[O-])cc3c2=O)c(OC)c1	-44.6%
C=CCc1ccc(OCC(O)COCC)c(OC)c1 (stereo not drawn)	-3.56%
O=C(/C=C/c1ccc(S(=O)(=O)N2CCOCC2)cc1)N1CCN(c2ccc(F)cc2)CC1	-25.6%
CC(Sc1nnc(-c2cccs2)n1-c1ccccc1)C(=O)NCc1ccc2c(c1)OCO2 (stereo not drawn)	-74.8%
COc1ccc(CNCCc2cccc(F)c2)c2ccccc12.O=C(O)C(=O)O	-74%
CCc1ccc(OCC2c3cc(OC)c(OC)cc3CCN2C(C)=O)cc1 (stereo not drawn)	-11.5%
O=S(=O)(Cc1cc(-c2ccccc2Cl)no1)c1ccccc1	-51%

SMILES	hERG current change (%, negative = inhibition) at 10uM
COc1ccc(NS(=O)(=O)c2cccc(C(=O)NCC(c3ccco3)N3CCCC3)c2)cc1 (stereo not drawn)	-36.8%
CC(C)N1CCC(N2CCN(Cc3ccc4nonc4c3)CC2CCO)CC1 (stereo not drawn)	-27.5%
CCOc1cc(C(N)=O)cc(OCC)c1OCC	8.44%
O=c1c2ccccc2nc(-c2ccccc2)n1CCN1CCOCC1	-6.34%
COc1cccc(NC(=O)Cn2cc(C(=O)C3CC3)c3ccccc32)c1	0.319%
CCS(=O)(=O)c1ccc(C(=O)Nc2ccccc2)c(Cl)c1Cl	9.75%
Cc1c(Br)c([N+](=O)[O-])nn1CC(=O)Nc1sc2c(c1C(=O)OC(C)C)CCCC2	-6.86%
COCC(C)n1c(SCC(=O)Nc2nccs2)nc2ccccc2c1=O (stereo not drawn)	14.5%
Cc1cccc(N2C(=O)c3ccc(Br)cc3C2=O)n1	-8.92%
CNC(=S)N(CCc1c(C)[nH]c2ccc(C)cc12)Cc1ccco1	-12.1%
Cc1ccc(NS(=O)(=O)c2cccc(C(=O)NCC(c3ccc(F)cc3)N3CCOCC3)c2)cc1 (stereo not drawn)	-16.8%
CCOC(=O)c1c(C)[nH]c(C2=NNC(=Nc3ccccc3OC)SC2)c1C	2.99%
O=C(CCN1C(=O)c2ccccc2C1=O)NCc1cccc(Cl)c1	-42%
Cc1cc(NC(=O)CSc2nnc(C3COc4ccccc4O3)n2N)no1 (stereo not drawn)	1.68%
Cc1nn(-c2ccccc2)c(N)c1C(O)(CC(=O)C(F)(F)F)C(F)(F)F (stereo not drawn)	7.54%
CCCCOP(=O)(c1ccc(N(C)C)cc1)C(O)c1c(Cl)cccc1Cl (stereo not drawn)	-18.9%
Cc1cccc(CN2C(=O)/C(=C\c3ccc(C(=O)NCCCN4CCN(C)CC4)cc3)Oc3ccccc32)c1	-4.13%
CC(NC(=O)Cn1nc(C(=O)O)c2ccccc2c1=O)C12CC3CC(CC(C3)C1)C2 (stereo not drawn)	-37.4%
CC1CN(S(=O)(=O)c2cccc(C(=O)NCc3ccco3)c2)CC(C)O1 (stereo not drawn)	-2.88%
CC(CCc1ccccc1)NC(=O)COC(=O)CC1CC2CCC1C2 (stereo not drawn)	-6.07%
COc1ccccc1Nc1nc(-c2cccc([N+](=O)[O-])c2)nc2ccccc12	0.938%
COc1cccc(/C=N/NC(=O)Cn2cnc3c2c(=O)n(C)c(=O)n3C)c1OC	10.6%

SMILES	hERG current change (%, negative = inhibition) at 10uM
O=C(c1cnn2c(C(F)F)cc(C3CC3)nc12)N1CCCC1	-4.75%
O=C(CCc1ccccc1)Nc1cc2c3c(c1)CCC(=O)N3CCC2	-29.5%
CNC(=S)N/N=C/c1ccccc1Cl	2.08%
Cc1nc2ccc(NC(=O)CCS(=O)(=O)c3ccccc3)cc2s1	9.34%
COC(=O)Cc1ccc(NC(=S)N2CCN(c3cccc(O)c3)CC2)cc1	15.5%
Cc1ccc(CNC(=O)c2ccc3c(c2)NC(=O)C(N2CCOCC2)S3)cc1 (stereo not drawn)	-2.92%
Cc1ccc(C(=O)N/N=C\c2cccn2C)cn1	22.4%
COc1ccc(OC)c(NC(=O)COC(=O)Cc2ccc(-c3ccccc3)cc2)c1	-6.13%
CCCC(=O)Nc1ccc(-c2csc(-c3cccnc3)n2)cc1	-24.6%
CCOC(=O)c1csc(NC(=O)c2ccc(S(=O)(=O)N(C)C)cc2)n1	-20.9%
Cc1ccc(Cn2cc(C(=O)c3ccc(F)cc3)c(=O)c3cc4c(cc32)OCCO4)cc1	-57.1%
O=C(Nc1ccccc1)c1cc(Cl)nc2ccccc12	10.5%
CC(=C\C(=O)O)/C(=C\c1cccc2ccccc12)C(=O)O	5.81%
Cc1cccc(NC(=O)/C(C#N)=C/c2ccc[nH]2)c1C	24.9%
O=C(CN(Cc1ccco1)C(=O)c1ccc(Cl)cc1)Nc1ccc(Cl)c(Cl)c1	1.39%
Cc1ccc(S(=O)(=O)Nc2ccccc2C(=O)N2CCCCC2C)c(C)c1NS(C)(=O)=O (stereo not drawn)	13.3%
O=C(NCc1ccccc1)c1c[nH]c2cc3c(cc2c1=O)OCCO3	2.64%
O=C(Cc1ccccc1)N/N=C/c1cc(Br)c(Br)o1	22.1%
COc1cc(NC(=O)c2ccc(C)cc2C)ccc1NC(=O)c1cc2ccccc2o1	6.61%
COc1ccccc1C(=O)c1nc2ccccc2n1C	-10.4%
CCn1c(SCC(=O)c2c[nH]c3ccccc23)nc2cc(S(=O)(=O)N3CCOCC3)ccc21	9.49%
Cc1cccc2sc(NC(=O)C3CCN(C(=O)c4ccco4)CC3)nc12	-71.6%

SMILES	hERG current change (%, negative = inhibition) at 10uM
COc1cccc(OCCn2cc(C(C)=O)c3ccccc32)c1	8.22%
COc1cc(C2C(C#N)=C(N)OC3=C2C(=O)CC(C)(C)C3)ccc1OC(=O)N1CCOCC1 (stereo not drawn)	5.32%
COc1ccc(C(C)=O)cc1CSc1nnc(C)n1-c1ccccc1	-0.582%
O=C(O)c1ccc(Cl)c(NC(=S)NC(=O)c2ccccc2[N+](=O)[O-])c1	14.4%
Cc1ccc(-n2nc(C)cc2Nc2ncc(Cl)cc2Cl)cc1	-13.7%
COC(=O)Cc1ccc(NC(=S)NCc2ccco2)cc1	23.3%
CCc1cccc(NC(=O)CCNC(=O)Cn2ccc3ccccc3c2=O)c1	12.7%
CCOc1cc(CN2CCN(C(=O)Cc3ccccc3)CC2)ccc1OC.O=C(O)C(=O)O	-37.6%
COC(=O)c1cccc(NC(=S)Nc2cccc(Cl)c2Cl)c1	8.76%
CCSc1cc(C2C(C(=O)OC)=C(C)NC3=C2C(=O)CCC3)c(C)o1 (stereo not drawn)	-12.6%
O=c1c2ccccc2c(-c2cccc(C(F)(F)F)c2)nn1-c1ccccc1	2.53%
Nc1ncnc2c1ncn2C1OC(CO)C(O)C1N (stereo not drawn)	0.612%
Brc1cccc(-c2nnc3n2CCC3)c1	2.98%
Nc1ccn(Cc2cccc(Cl)c2)n1	7.72%
O=C(/C=C/c1ccc(OCCCF)cc1)N1CCOCC1	1.61%
O=C(CCl)N1CCN(S(=O)(=O)c2ccc3c(c2)OCCCO3)CC1	1.32%
CC(NC(=O)CN(C)S(=O)(=O)c1ccc(F)cc1)C1CC2CCC1C2 (stereo not drawn)	-2.34%
COc1cccc(NC(=O)c2ccc(NCCCN3CCC(C)CC3)c([N+](=O)[O-])c2)c1	-56.2%
Cc1ccc(NC(=O)/C(=C/c2cccc(Br)c2)NC(=O)c2ccco2)cc1	-28.1%
Cc1cccn2c(=O)c(/C=C(\C#N)C(N)=O)c(N3CCN(c4cccc(Cl)c4)CC3)nc12	-20.5%
Cc1cc(N2CCOCC2)nc2ccc(NC(=S)N3CCN(c4ccccc4)CC3)cc12	6.12%
